From PMC4336329 (PLoS ONE, 2015)
The campaign covered roughly 310,000 compounds. About 14,000 (4.5%) showed an effect of 50% or more. The effect is printed as a negative number. The list shows a part of the results.

These compounds were tested against human ether-à-go-go-related gene (hERG) potassium channel (human, UniProt Q12809) (assay: primary screen, population patch clamp on CHO cells stably expressing hERG).
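Further: peak tail current of the secondary pulse compared with the same well before compound.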

Chain of human ether-à-go-go-related gene (hERG) potassium channel (Q12809 whole entry, looked up): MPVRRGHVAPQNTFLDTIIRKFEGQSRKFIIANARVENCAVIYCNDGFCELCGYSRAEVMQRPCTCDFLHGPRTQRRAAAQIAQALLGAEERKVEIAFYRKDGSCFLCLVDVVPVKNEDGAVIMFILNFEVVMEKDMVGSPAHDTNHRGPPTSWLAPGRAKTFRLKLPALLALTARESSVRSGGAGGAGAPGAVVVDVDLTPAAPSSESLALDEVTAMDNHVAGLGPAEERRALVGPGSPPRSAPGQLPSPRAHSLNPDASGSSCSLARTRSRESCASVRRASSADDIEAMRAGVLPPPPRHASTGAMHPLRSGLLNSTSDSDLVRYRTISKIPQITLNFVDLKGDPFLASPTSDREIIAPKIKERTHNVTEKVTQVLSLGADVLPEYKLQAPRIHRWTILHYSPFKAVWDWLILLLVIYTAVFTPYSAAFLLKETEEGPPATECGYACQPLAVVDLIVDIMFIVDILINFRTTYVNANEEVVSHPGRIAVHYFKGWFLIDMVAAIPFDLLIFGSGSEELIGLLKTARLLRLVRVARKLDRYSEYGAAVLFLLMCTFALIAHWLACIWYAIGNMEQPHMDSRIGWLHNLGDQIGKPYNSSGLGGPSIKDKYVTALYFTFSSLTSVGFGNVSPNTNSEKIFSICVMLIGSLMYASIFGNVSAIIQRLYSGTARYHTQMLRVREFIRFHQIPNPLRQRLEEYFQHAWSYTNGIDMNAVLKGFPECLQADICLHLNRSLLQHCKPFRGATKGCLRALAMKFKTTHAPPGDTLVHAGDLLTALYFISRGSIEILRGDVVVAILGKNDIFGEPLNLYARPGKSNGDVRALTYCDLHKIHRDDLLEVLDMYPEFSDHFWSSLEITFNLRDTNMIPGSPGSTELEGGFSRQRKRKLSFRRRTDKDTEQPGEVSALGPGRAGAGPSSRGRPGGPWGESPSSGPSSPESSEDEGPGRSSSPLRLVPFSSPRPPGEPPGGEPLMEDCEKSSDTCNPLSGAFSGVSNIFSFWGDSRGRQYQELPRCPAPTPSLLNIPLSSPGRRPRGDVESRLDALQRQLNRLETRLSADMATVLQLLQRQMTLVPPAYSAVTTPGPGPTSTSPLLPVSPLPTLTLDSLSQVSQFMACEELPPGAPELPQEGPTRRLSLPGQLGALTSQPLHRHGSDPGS

SMILES	hERG current change (%, negative = inhibition) at 10uM
Cc1c(Br)c([N+](=O)[O-])nn1CC(=O)Nc1ccc2nc3n(c(=O)c2c1)CCCC3	0.566%
COc1cc(CNn2cn[nH]c2=S)cc(Br)c1OCc1ccccc1F	6.75%
Cc1ccccc1CN1CCN(C2CCC2)CC1CCO (stereo not shown)	9.75%
COc1cc(NC(=O)c2ccccc2)c(OC)cc1NC(=O)CN1CCN(c2ccccn2)CC1	-28.3%
O=C1N(c2ccccc2C(F)(F)F)OC1(Cc1ccccc1)c1ccccc1 (stereo not shown)	21.6%
O=C(O)C1C2C=CC(C2)C1C(=O)N1CCOCC1 (stereo not shown)	-0.616%
Cn1c(Cn2c(=O)sc3ccccc32)nnc1SCC(=O)N1CCN(c2ccccc2)CC1	-49.5%
Oc1ccc(/C=N/N2CCOCC2)c(O)c1O	50.5%
Cc1ccc(SCCNC(=O)/C=C/c2cccc([N+](=O)[O-])c2)cc1	-31.6%
O=C(c1ccco1)N1CCCC(c2nc3c(nnn3Cc3c(Cl)cccc3Cl)c(=O)[nH]2)C1 (stereo not shown)	-40.2%
CN1C(=S)SC(/[N+]([O-])=C\c2ccco2)C1(C)C (stereo not shown)	8.23%
Cl.c1ccc(COc2ccc(CNCc3cccs3)cc2)cc1	-12.7%
Cc1ccc(NC(=O)C(c2ccccc2)N(C)C)cc1Cl (stereo not shown)	-19.5%
CCCC(=O)Nc1c2c(nn1-c1ccccc1)CSC2	1.81%
Cc1ccc(-c2nc(N)n(C(=O)Cc3ccccc3)n2)cc1	29%
CCc1c(C)nc(SCC(=O)N2CCN(c3ccccc3)CC2)[nH]c1=O	-6.86%
Cn1nnc2cc(C(=O)NCc3ccc4c(c3)OCO4)ccc21	16.9%
COc1cc(Br)c(CCNC(=O)c2ccco2)cc1OC	8.39%
C/C(=N\NC(=O)CSc1nc2ccccc2o1)c1ccc(O)cc1	6.77%
O=C(CC1N=C2c3ccccc3N=C(SCc3ccccc3Cl)N2C1=O)NCc1ccco1 (stereo not shown)	-47%
CC(C)N1C(=O)S/C(=C/c2ccccc2OCc2ccc(C(=O)O)cc2)C1=O	-6.06%
NS(=O)(=O)c1ccc(Cl)cc1[N+](=O)[O-]	22%
CC(=N)C1=C(O)CC(C)(C)CC1=O	1.84%
COc1cccc(C2C(C#N)=C(N)N(c3ncn[nH]3)C3=C2C(=O)CCC3)c1 (stereo not shown)	10.6%
C=CCNC(=S)N(C1CCCCC1)C1CCCCC1	18.7%
COc1ccc(-c2cn3c(C)c(C(=O)Nc4cccc(C)n4)sc3n2)cc1	1.23%
CCOC(=O)C1CCN(S(=O)(=O)c2ccc(C)cc2)CC1	3.36%
NC(N)=NS(=O)(=O)c1ccc(N)cc1	-0.264%

SMILES	hERG current change (%, negative = inhibition) at 10uM
CC1(O)C(=O)C=C2C=C(c3ccc(C#N)cc3)OC=C2C1=O (stereo not shown)	20.1%
Cc1nc(/C(N)=N/OC(=O)c2cccc(Cl)c2)c(C(F)(F)F)o1	12.2%
COc1ccc(-c2cc(C(F)(F)F)n3nc(C(=O)N4CCCC4)cc3n2)cc1	-12.5%
COC(=O)C1=C(C)OC(N)=C(C#N)C1c1cc2cc(C)ccc2nc1Cl (stereo not shown)	25.5%
Cc1c(C(=O)OCc2nc3ccsc3c(=O)[nH]2)oc2ccccc12	3.33%
Cc1ccc(-n2cc(CN3CCC(CO)(Cc4cccc(C(F)(F)F)c4)CC3)cn2)cc1	-76%
Cc1cc(C)c(C(=O)CSc2nc3ccccc3c(=O)[nH]2)cc1C	32.5%
O=C(CCCc1ccccc1)NCCc1ccccc1	16.8%
CN(CCC#N)C(=O)COC(=O)c1ccc2c(=O)n3c(nc2c1)CCC3	35%
CN(CC(=O)Nc1cccc(F)c1)C(=O)c1ccccc1Sc1ccccc1C#N	-18.5%
C/C=C/C(=O)N1CC2(CC(c3cccc(NC(=O)COc4ccc(Cl)cc4)c3)=NO2)C[C@@H]1C(N)=O (stereo partly shown)	-41.4%
CCOC(=O)c1[nH]c(C(=O)O)c(CCC(=O)OC)c1C	7.09%
O=C(COC(=O)CCc1c[nH]c2ccccc12)Nc1cc([N+](=O)[O-])ccc1Cl	9.61%
COc1ccc(CCNc2cc(C)nc(N)n2)cc1OC	2.02%
O=C(NC1CCCCC1)C(c1ccco1)N(C(=O)c1csnn1)C1CCCC1 (stereo not shown)	-9.22%
CCS(=O)(=O)c1nc(S(=O)(=O)c2ccc(Cl)cc2)c(NCc2ccccn2)s1	2.86%
Cc1ccc(S(=O)(=O)CCC(=O)NCCN2C(=O)S/C(=C/c3ccc(F)cc3)C2=O)cc1	-16.7%
CCN(CC)CCNC(=O)CCc1nnc2ccc(N3CCC(C)CC3)nn12	15.3%
CN(C)S(=O)(=O)c1ccc(Cl)c(C(=O)NCC2CCCCC2)c1	-7.74%
CC1(C)OCC(COC(=O)Nc2cccnc2)([N+](=O)[O-])CO1	23.8%
C#CCOCCOCCOCCNc1nc(N2CCN(C(=O)[C@H](CCCCN)n3cc([C@@H](N)CO)nn3)CC2)nc(N2CCN(C(=O)[C@H](Cc3cc4ccccc4[nH]3)n3cc([C@@H](N)Cc4ccc(O)cc4)nn3)CC2)n1.Cl	1.28%
CCC/C(=N\NC(=O)c1ccc(OC)c(OC)c1)c1ccccc1	-2.94%
COc1ccc(CN(C)CC2CCCN(CCc3ccc(F)cc3)C2)c(OC)c1OC (stereo not shown)	-74.8%
N#Cc1cccc(NC(=O)CC2CCCCC2)c1	-21.3%
CCOC(=O)c1cc2occc2n1CC(=O)NC1CCC(C)CC1 (stereo not shown)	-3.58%
CCOC(=O)C[C@H]1c2ccc(C(F)(F)F)cc2S(=O)(=O)N1C(C)C	-14.4%
Cc1[nH]c2ccccc2c1C(=O)CSc1cccc[n+]1[O-]	23.9%
